# Data published in PubChem BioAssay AID624418 (National Center for Advancing Translational Sciences (NCATS), 2012).
# Screen size: about 410,000 compounds; about 530 (0.13%) were called active. The inconclusive results got no clear call from the source; some entries with a clear call stand among them for comparison. Calls come from the whole dose curve; as a rule, active = well fitted inhibition curve with a large enough effect; inconclusive = small, poorly fitted or top-dose-only effect, or another doubt; inactive = no such curve, though single readings can be large or run the other way. Potencies of inconclusive entries are doubtful fits and often do not repeat.
# Experiment: qHTS of GLP-1 Receptor Inverse Agonists: Cytotox Screen
# Conditions: HEK293 cAMP-luciferase reporter cells, luminescence, 24 h; activity change, negative = inhibition: at 38.3 µM (top of the series)
# Procedure, shortened: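 A 23 nL compound transfer followed 12 hours of cell culture at 37 deg C; exposure then lasted 24 hr. Luciferase assay detection reagent was dispensed and plates read for luminescence after a 12 min room-temperature wait.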
# % is set by controls: 0 for no effect and ±100 for the full control effect; potency is the fitted concentration of half-maximal effect.
Structure (SMILES),"activity change, negative = inhibition",Potency
COc1ccc(-c2cc3ccccc3n2CC(O)CN2CCN(CCO)CC2)cc1 (centres undefined),inactive: 0.8%,
Cc1ccc(NC(=S)N2CCN(Cc3ccccc3)CC2)cc1,,"inconclusive: 10 µM [inhibitor, single point]"
Cc1ccc(C(=O)N2CC(C)CC(C)C2)cc1S(=O)(=O)N1CCCCC1 (centres undefined),inconclusive: -30.8% [inhibitor],
c1ccc(CCSc2ncnc3nc[nH]c23)cc1,inactive: -2.31%,
Cc1cc(C)cc(NC(=S)Nc2cccc3ccccc23)c1,,"inconclusive: 8.91 µM [inhibitor, partial curve, poor fit]"
OC(c1ccccc1)(c1ccccc1)c1ccn[nH]1,,"inconclusive: 31.6 µM [inhibitor, single point]"
Cc1cc(C)n(-c2nc(NCCN(C)C)c3c4c(sc3n2)CCCC4)n1,,"inconclusive: 10 µM [inhibitor, partial curve]"
CC1=NN(C(N)=S)C(=O)C1N=Nc1ccccc1Cl (centres undefined),inactive: 2.83%,
CS(=O)(=O)c1cc([N+](=O)[O-])c(Sc2nc3ccccc3[nH]2)c([N+](=O)[O-])c1,,"inconclusive: 28.2 µM [inhibitor, single point]"
CCOC(=O)c1c(C)[nH]c(N=Nc2cccc(C)c2)c1C,,"inconclusive: 8.91 µM [inhibitor, partial curve, poor fit]"
Cc1ccnc(NC(c2ccccn2)c2c(C)[nH]c3ccccc23)c1 (centres undefined),,"inconclusive: 31.6 µM [inhibitor, single point]"
O=C(Nc1ccc(N2CCN(C(=O)c3ccco3)CC2)c(Cl)c1)c1cccs1,,"inconclusive: 22.4 µM [inhibitor, single point]"
CCOC(=O)c1cnc(-n2nc(C)cc2C)nc1NCc1ccc2c(c1)OCO2,,"inconclusive: 3.55 µM [inhibitor, full curve]"
Brc1ccc(OCCN2CCOCC2)cc1,inactive: 3.04%,
N#Cc1ccccc1Cn1c(SCC(=O)NCc2ccccc2)nc2ccccc21,inactive: -0.892%,
OC(CN1CCN(c2cccc(C(F)(F)F)c2)CC1)c1c[nH]c2ccccc12 (centres undefined),,"inconclusive: 12.6 µM [inhibitor, single point]"
CNc1cccc(-c2c(OC)cccc2OC)n1,inactive: 4.65%,
CCc1cccc2c(-c3ccccc3)nc(SCC(=O)Nc3ccc(OC)cc3)nc12,inactive: -0.297%,
CC1=NN(c2ccccc2)C(=O)C1C=Nc1ccc(N(C)C)cc1 (centres undefined),,"inconclusive: 12.6 µM [inhibitor, single point]"
CCOC(=O)c1c(NC(=O)C(C)NCc2ccco2)sc2c1CCC(C)C2 (centres undefined),,"inconclusive: 31.6 µM [inhibitor, single point]"
CCc1c(C)nc(Nc2nc(C)c3ccc(OC)cc3n2)[nH]c1=O,,"inconclusive: 10 µM [inhibitor, partial curve]"
S=C(NCc1ccc(Cl)cc1)NC1CCN(Cc2ccccc2)CC1,,"inconclusive: 31.6 µM [inhibitor, single point]"

Structure (SMILES),"activity change, negative = inhibition",Potency
O=C(c1ccc(Br)cc1)c1cc([N+](=O)[O-])ccc1N1CCOCC1,,"inconclusive: 2.24 µM [inhibitor, partial curve, poor fit]"
CC1CCCCN1C(=S)NC(=O)c1ccco1 (centres undefined),,"inconclusive: 28.2 µM [inhibitor, single point]"
CCCCCCCSc1ncnc2[nH]ncc12,,"inconclusive: 11.2 µM [inhibitor, single point]"
CN(CCNC(=O)c1cc2c(-c3ccccc3F)nn(C)c2s1)C1CCCCC1,,"inconclusive: 10 µM [inhibitor, partial curve, poor fit]"
CCN(CC)CCCNC(=O)c1cc2c(Cl)nc3ccccc3c2s1,,"inconclusive: 10 µM [inhibitor, single point]"
CCn1cc(C(=O)N[C@H](C(=O)NCCCO)C(C)C)c(=O)c2cc3c(cc21)OCO3,,"inconclusive: 0.501 µM [inhibitor, full curve, poor fit]"
COc1ccccc1/C=C/C=N/n1c(-c2ccc(C)cc2)n[nH]c1=S,inactive: -26%,
Cc1ccc(-n2cc(CNCCCn3cccn3)c(-c3cccc(C)c3)n2)cc1,,"inconclusive: 11.2 µM [inhibitor, partial curve, poor fit]"
COc1ccc(NC(=O)NCCCN2CCN(c3ccccc3F)CC2)cc1,,"inconclusive: 0.501 µM [inhibitor, full curve, poor fit]"
COC(=O)[C@H](CC(C)C)NC(=O)NCCC1=CCCCC1,,"inconclusive: 14.1 µM [inhibitor, single point]"
CSC[C@H]1CN(CCc2ccccc2)C(=O)[C@@H]1CC(=O)Nc1ccc(Br)cc1,inactive: -13.4%,
CCN(C(=O)c1sc2nc3n(c(=O)c2c1C)CCCC3)c1ccccc1F,inactive: -7.18%,
COc1ccc(C2C(C(C)=O)=C(C)N=c3s/c(=C\c4ccco4)c(=O)n32)c(OC)c1 (centres undefined),,"inconclusive: 28.2 µM [inhibitor, single point]"
CC(=O)Nc1ccc2c(c1)Cc1c-2cc(Br)c(N)c1Br,inactive: -0.428%,
COc1ccc(-c2noc(-c3cccs3)n2)cc1OC,,"inconclusive: 11.2 µM [inhibitor, single point]"
O=C(NCCNc1ccc([N+](=O)[O-])cc1)c1ccccc1Br,,"inconclusive: 31.6 µM [inhibitor, single point]"
COc1cccc(Nc2nc(NCC3CCCO3)c3ccccc3n2)c1 (centres undefined),,"inconclusive: 11.2 µM [inhibitor, single point]"
COc1cc(C(=O)NCC(c2ccc(N(C)C)cc2)N2CCc3ccccc32)cc(OC)c1OC (centres undefined),inactive: -6.53%,
CC(C)(C)OC(=O)CNC(=O)c1[nH]cnc1C(=O)NC(c1ccccc1)c1ccccc1,,"inconclusive: 28.2 µM [inhibitor, single point]"
Clc1nc(-c2ccccn2)nc2scc(-c3ccccc3)c12,,"inconclusive: 5.62 µM [inhibitor, partial curve, poor fit]"
CC1(C)C2CCC1(CS(=O)(=O)Nc1ccc(S(=O)(=O)NC3CCCCC3)cc1)C(=O)C2 (centres undefined),,"inconclusive: 8.91 µM [inhibitor, partial curve, poor fit]"
Cn1cc(CN2CCC(n3nccc3NC(=O)c3ccccc3Cl)CC2)c2ccccc21,,"inconclusive: 0.891 µM [inhibitor, full curve, poor fit]"
